# Experimental data: the RNAGym collection of RNA variant scans (doi:10.7554/elife.90254)
# The source gives no read counts; variants with many changes may rest on few reads.
# B1: LINE1-mini (parent)
# chain: GGCAGAGCUCAACACAGCGUGGCAAAGUGGCUGUGGCUAGACUGCC
# Variants of: B1
# Assay: self-cleavage, relative activity (ratio to wild type); higher = more cleavage; in vitro, sequencing; the parent is a self-cleaving ribozyme
row,Variant,self-cleavage
1,G5C A11G C13A,0.05
2,A24G C42U C46A,0.11
3,G7C A41C C45G,0.05
4,A4C G22U U32G,0.1
5,G2A G5A C37A,0.82
6,A11U C15A G36A,0.03
7,A4G G5C A26G,0.02
8,C3U C15U U20G G22C A26C C31G,0.07
9,C37A U38C C46U,0.1
10,G2U C23U U28G,0.04
11,C31A G35U G40U,0.04
12,G21U G22U C23U G30A G44C,0.23
13,G1A A25G U32A C37A,0.04
14,A16G G21U G33C,0.02
15,C3G U28C G36A,1.13
16,G5A A12U U32C,0.09
17,G5A C37A G44C,0.02
18,G19A G29C G36A,0.05
19,G5U C13A G30U G40C,0.04
20,G5C U20C C31G G33A,0.03
21,A6G A16U G19U C45U,0.02

row,Variant,self-cleavage
1,C10G G21A C23U A24G A26C,0.22
2,C3U A4U U28G,0.26
3,C13U G22A G44U,0.13
4,A4C A14G C42U,0.17
5,G17U U34G A39U A41G,0.01
6,C8U G17U C18A G21U G22U C37A U43A G44C,0
7,A6G A16G G44A,0.02
8,A4C G22C U28C U32C,0
9,G1A G27A G33A,0.03
10,C13G U20A U34A,0.03
11,G5C U9A U28A,0.06
12,C8U C10A U34A,0.08
13,G5A A14G G35C C37U,0.02
14,A4G G7A A11U C46G,0.04
15,A11G C31U G36C,0.04
16,C13G A24U G33U,0.01
17,C3A C18U U38G A39U,0.06
18,C3U C8A C10G G33C G40U U43A,0.04
19,C13A C15U G33C,0.03
20,A12U U20C G35U,0.05
21,G1A G5U A12G A41U,0.07

row,Variant,self-cleavage
1,G2C A6U C18U,0.02
2,C8A G19A G30C G35A C37U,0.1
3,A4G C13A C18A G21A C37U C46A,0.04
4,A6G G27A A39U,0.69
5,A12G A41C C42A,0.01
6,G1A G21U G33C,0.08
7,G1U C8A G17U,0.04
8,C3A C23A A25G G33U,0.02
9,G21A G27U U28C,0.53
10,A6U G21A C23A G35C U43C,0.01
11,G17C G21A G30A U34G,0.03
12,G2U C10A G17U G27A C37G,0
13,U9A C15U G22U,0.33
14,U9C A14U G19A C42U,0.05
15,A4G C8U A12G G17C G27U U34G U43G C46G,0.14
16,A12G G17A G22U G44A,0.02
17,A12G G30A C37U G40C,0.02
18,C3A C10G A16G G27U,0.03
19,G2A A6U U20C G27U G40A,0.1
20,C3G A6U C18U U32A G33U,0.07
21,G2A A6U A25U A26G U32A C37G,0.03

row,Variant,self-cleavage
1,G1U G2C G19A A24U G44A,0.22
2,A12C A25C U32G U43A,0.01
3,G19C A26G G27C,0.18
4,G1C C3G G27U G30U C37A,0.14
5,A4U G17A G40A,0.05
6,U9A G17U U32G,0.09
7,G7C C18U C23G,0.02
8,G2A C10A A11G A24C,0.04
9,A24G G27A U38C,0.93
10,C10A A16G G19C G33A G36U,0.01
11,C3G A25C G27C G30U G33U,0.06
12,A12G U20A U28G G30C,0.02
13,C8U G19A A26U G44C,0.11
14,G2C C3U C10U G33U,0.04
15,A4U C42U G44A,0.19
16,A11G C31G C46U,0
17,C8G G19C G21U,0.08
18,A4U A11G G27C G35C G36A A41G C46A,0.02
19,G35C A41U G44A,0.03
20,C10U G21C C46A,0.12
